According to PubChem BioAssay AID360 (National Center for Advancing Translational Sciences (NCATS), 2006):
Out of some 48,000 compounds screened, about 550 (1.1%) were called active. Not shown: some 4% with an inconclusive outcome. Rule as the data show it: active = potency below about 15 µM; inconclusive = mostly about 16 µM to 33 µM; inactive = weaker than that. This is one part of the list.

What follows are molecules tested against Lysosomal acid glucosylceramidase (Homo sapiens) (UniProt P04062) (assay: Glucocerebrosidase). Conditions: purified enzyme, resorufin glucoside fluorescence (screen aimed at inhibitors), 20 min.
Outline: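 Compounds titrated against 0.2 nM normal enzyme, 30 uM resorufin beta-D-glucopyranoside substrate, citrate/phosphate buffer with taurocholate and tween-20, pH 5.9. Reaction ran 20 min at room temperature; fluorescence (Ex 548/Em 600) gave AC50.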
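Also: the screen sought inhibitors.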
Potency is read from the fitted curve at half-maximal effect.

UniProt P04062, sequence (P04062 whole entry, looked up): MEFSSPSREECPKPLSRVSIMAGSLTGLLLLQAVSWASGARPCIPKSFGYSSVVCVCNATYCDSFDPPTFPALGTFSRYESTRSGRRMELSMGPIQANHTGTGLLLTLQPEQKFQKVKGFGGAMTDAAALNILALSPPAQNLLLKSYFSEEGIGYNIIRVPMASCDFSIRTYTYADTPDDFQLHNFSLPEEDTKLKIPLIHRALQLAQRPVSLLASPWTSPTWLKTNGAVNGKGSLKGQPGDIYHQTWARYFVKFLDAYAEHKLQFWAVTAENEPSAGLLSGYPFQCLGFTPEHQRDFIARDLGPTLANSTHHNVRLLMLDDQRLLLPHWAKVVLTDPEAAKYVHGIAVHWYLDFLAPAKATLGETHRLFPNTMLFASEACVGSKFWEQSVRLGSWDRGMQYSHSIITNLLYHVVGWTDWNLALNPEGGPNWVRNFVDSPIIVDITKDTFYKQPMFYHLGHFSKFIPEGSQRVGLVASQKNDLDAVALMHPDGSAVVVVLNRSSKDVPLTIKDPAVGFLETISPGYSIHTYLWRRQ

Potency, inactive:
O=C(COC(=O)c1ccc[nH]c1=O)NC1CCCC1 > 76.9 µM
CCCn1c(=O)c2ccccc2n2c(SCC(=O)Nc3cc(C)on3)nnc12 > 76.9 µM
O=S(=O)(Cc1ccccc1)/C1=C(\N2CCOCC2)CCCCCC1 > 76.9 µM
O=C(CCCN1C(=O)C2C3C=CC(C3)C2C1=O)N1CCN(c2ccccc2)CC1 (stereo not drawn) > 76.9 µM
O=C(OCCCN1CCCCC1)c1ccc(O)cc1 > 76.9 µM
Cn1nnnc1SCCNCC#Cc1ccccc1 > 76.9 µM
C=CCN1C(=O)C(C)(C)Nc2ccccc21 > 76.9 µM
O=c1[nH]c(=O)n(C2CCCCCC2)c(O)c1C=NCc1ccc(F)cc1 > 76.9 µM
CCOC(=O)N1CCC(NC(=O)CSc2cc(=O)n(C)c3ccc(Cl)cc23)CC1 > 76.9 µM
Cc1nc2cc(-c3cccc(F)c3)nn2c(N2CCOCC2)c1C > 76.9 µM
CCn1cc(C(=O)N2CC=C(c3ccccc3)CC2)c(=O)c2ccc(C)nc21 > 76.9 µM
Cc1ccc(C(C)C)c(OCC(O)CN2CCOCC2)c1 (stereo not drawn)
O=C(NCc1ccco1)c1ccc2nc3sc4c(c3c(=O)n2c1)CCCC4 > 76.9 µM
CCN1CCc2nc(NC(=O)c3ccc4c(c3)OCCO4)sc2C1 > 76.9 µM
Cn1c(C(F)(F)F)nc2c(=O)oc3ccccc3c21 > 76.9 µM
CC(C)=CCC/C(C)=C/CN(CC(C)O)CC(C)O (stereo not drawn) > 76.9 µM
COc1ccccc1N1CCN(S(=O)(=O)c2ccc(Cl)s2)CC1 > 76.9 µM
Cc1nn(CC(=O)O)c2ccccc12 > 76.9 µM
c1ccc(-c2noc(CSc3nnc(Cc4cccs4)n3-c3ccccc3)n2)cc1 > 76.9 µM
O=C(COc1ccccc1)Nc1nc(-c2cccs2)cs1 > 76.9 µM
CC(=O)Nc1nc2ccccc2n1CCOc1ccccc1Cl > 76.9 µM
O=C(O)c1ccc(NS(=O)(=O)c2ccc(Cl)cc2)cc1 > 76.9 µM
CC(C)NC(=O)c1ccccc1NC(=O)CN(c1ccc2c(c1)OCO2)S(C)(=O)=O > 76.9 µM
CCOCCCNCc1cccc(OC)c1 > 76.9 µM
CCn1c2ccccc2c2cc(C3C(C#N)=C(C)NC(C)=C3C#N)ccc21 > 76.9 µM
O=C(Nc1cccc(-c2nnc(-c3ccccc3)o2)c1)C1CCCCC1 > 76.9 µM
Cc1ccccc1CN1CCCNC1=O > 76.9 µM
CCOC(=O)CC1C(=O)NCCN1C(=O)COc1ccc(Br)cc1C (stereo not drawn) > 76.9 µM
O=S(=O)(NCCc1ccc2c(c1)OCCO2)c1cccs1 > 76.9 µM
C=CCn1c(N2CCCC2)nc2c1c(=O)[nH]c(=O)n2C > 76.9 µM
CN(Cc1nc2ccccc2n1C)S(C)(=O)=O > 76.9 µM
CCOC(=O)CSc1nc2c(sc(=S)n2CCc2ccccc2)c(=O)n1Cc1ccco1 > 76.9 µM
COc1cc2c3c(c1)C1(C(=O)N3C(C)(C)C=C2C)C(C#N)=C(N)Oc2cc(O)ccc21 (stereo not drawn) > 76.9 µM
CN1C(=O)c2oc3ccc(Br)cc3c(=O)c2C1c1ccncc1 (stereo not drawn) > 76.9 µM
CCOC(=O)C1CCN(C(=O)C2CC(=O)N(c3ccc(C)cc3)C2)CC1 (stereo not drawn) > 76.9 µM
Cc1ccnc(NC(=O)CCC2CCCCC2)c1
CCC(C)[C@H](NC(=O)NCc1cccs1)C(=O)O (stereo partly drawn) > 76.9 µM
COc1ccc(Cl)cc1NC(=O)CSc1nnc(COc2ccccc2)n1N > 76.9 µM
COc1cc2c(cc1OC)C(c1cccs1)NCC2 (stereo not drawn) > 76.9 µM
O=C(C1CC1)N(Cc1ccco1)c1nc(-c2ccccc2)cs1 > 76.9 µM
COC(=O)c1ccccc1NC(=O)N1CCN(S(=O)(=O)c2ccc(Cl)cc2)CC1 > 76.9 µM
CCc1ncc(C(O)c2cccc(OC)c2OC)n1C (stereo not drawn) > 76.9 µM
COc1cccc(S(=O)(=O)N2CCN(c3ccccc3F)CC2)c1 > 76.9 µM
COC(=O)c1[nH]c2ccc(C)cc2c1NC(=O)CN1CCCC(C)(C)C1 > 76.9 µM
COc1cc(OC)c(OC)cc1CN1CCCC(C(=O)N2CCCCC2)C1 (stereo not drawn) > 76.9 µM
Cc1cccc(-n2nc3c(c2NC(=O)c2ccc(Br)o2)CSC3)c1 > 76.9 µM
CC(C)C(=O)N(Cc1cc(=O)[nH]c2ccccc12)c1ccccc1 > 76.9 µM
O=C(CN1CCCC1)N1CCCc2c1c(=O)oc1ccc(OCc3ccccc3)cc21 > 76.9 µM
COC(=O)COc1ccc(S(=O)(=O)N2CCN(c3ccccc3F)CC2)cc1C > 76.9 µM
CC1(C)Cc2c(c(-c3ccco3)[nH]c(=O)c2C#N)CO1 > 76.9 µM
Cc1noc(C)c1CSc1ncnc2sc3c(c12)CCC3 > 76.9 µM
Nc1nnc2c(n1)CCCC2 > 76.9 µM
Cc1c(C(=O)NCCC2=CCCCC2)oc2ccc(S(=O)(=O)N3CCOCC3)cc12 > 76.9 µM
Cc1cccc(-n2c(O)c(C=Nc3ccc4c(c3)OCO4)c3ccccc3c2=O)n1 > 76.9 µM
C/C(=C\C(=O)c1ccc(C)o1)Nc1ccc2c(c1)OCO2 > 76.9 µM
CCS(=O)(=O)N1CCN(C(=O)CCC2CCCC2)CC1 > 76.9 µM
CCOC(=O)c1csc(Nc2nc3ccc(F)cc3s2)n1 > 76.9 µM
COC(=O)c1oc2ccc(Br)cc2c1NC(=O)c1ccccc1 > 76.9 µM
CC(C)OCCCn1c(=S)[nH]c2cc3c(cc2c1=O)OCO3 > 76.9 µM
CCc1nnc(NC(=O)CC(=O)Nc2ccccc2C(=O)O)s1 > 76.9 µM
O=C(Nc1ccccc1OC(F)F)c1ccccc1 > 76.9 µM
CCn1c(SCc2nc(-c3cccs3)no2)nnc1-c1c[nH]c2ccccc12 > 76.9 µM
O=C(O)c1ccccc1COc1ccccc1Cl > 76.9 µM
O=C(O)C1C2C=CC(O2)C1C(=O)NC1CCCc2ccccc21 (stereo not drawn) > 76.9 µM
COCCNC(=O)C(c1cccs1)N(CCc1ccccc1)C(=O)Cn1nnc2ccccc21 (stereo not drawn) > 76.9 µM
O=C1N2c3ccccc3CCc3cccc(c32)C1(O)C(F)(F)F (stereo not drawn) > 76.9 µM
CC1=CCC2C(=O)N(c3ccc(Br)cc3C)C(=O)C2C1 (stereo not drawn) > 76.9 µM
COc1cccc(-c2csc(N3CCN(CC(=O)Nc4ccc5c(c4)OCO5)CC3)n2)c1 > 76.9 µM
Clc1ccc(-c2nn3c(-c4ccccn4)nnc3s2)c(Cl)c1 > 76.9 µM
O=c1cc(CN2CCC3(CC2)OCCO3)c2c(ccc3ccccc32)o1 > 76.9 µM
Nc1nc(NC(=O)c2cccc(S(=O)(=O)N3CCCCCC3)c2)nc(-c2ccccc2)n1 > 76.9 µM
CCOC(=O)CNC(=O)c1sc(NC(=O)c2ccccc2F)nc1C > 76.9 µM
COC(=O)c1[nH]c2ccc(C)cc2c1NC(=O)CN1CCN(C(=O)c2ccccc2)CC1 > 76.9 µM
CC(=O)c1cccc(S(=O)(=O)N2CCC(n3nnc4cc(F)ccc43)CC2)c1 > 76.9 µM
Clc1ccc2nc(N3CCN(c4ccccc4)CC3)sc2c1 > 76.9 µM
COc1ccccc1NC(=O)Cc1noc(CSc2cc(C)c3ccccc3n2)n1 > 76.9 µM
Cc1cccc(N2CC(C(=O)O)CC2=O)c1 (stereo not drawn) > 76.9 µM
CCCCN(C)C(=O)C1CCN(Cc2ccccn2)CC1 > 76.9 µM
O=c1/c(=C/c2ccco2)sc2nc(-c3ccccc3Br)nn12
CCOC(=O)c1c(C)[nH]c2ccc(O)cc12 > 76.9 µM
Nc1nc(CSc2ccccn2)nc(Nc2ccccc2)n1 > 76.9 µM
COc1ccc(CN(Cc2cc3cc(C)ccc3[nH]c2=O)C(=O)N(C)C)cc1 > 76.9 µM
COc1ccc(C2C(C(=O)NCc3ccco3)CCC(=O)N2c2ccc(OC)cc2)cc1 (stereo not drawn) > 76.9 µM
COc1ccc(NC(=O)N2CC(C)OC(C)C2)cc1OC (stereo not drawn) > 76.9 µM
COc1ccc(C(=O)CSc2nnc(-c3ccc(S(=O)(=O)N4CCOCC4)cc3)o2)cc1 > 76.9 µM
Cc1nc(NC(=O)c2cccnc2)ccc1Br > 76.9 µM
CCOC(=O)Cc1nn(CCc2ccccn2)c(=O)c2ccccc12 > 76.9 µM
OC(CNCc1ccco1)Cn1c2ccccc2c2ccccc21 (stereo not drawn) > 76.9 µM
OC(COCc1ccco1)CN1CCN(C(c2ccccc2)c2ccccc2)CC1 (stereo not drawn) > 76.9 µM
CCn1c(CSc2nc3ccccc3s2)nnc1SCC(=O)c1ccc2c(c1)OCCO2
NC(=O)CCCC1=NS(=O)(=O)c2ccccc2N1 > 76.9 µM
CC(C)CNS(=O)(=O)c1ccc(S(=O)(=O)N2CCCN(Cc3ccccc3)C2)cc1 > 76.9 µM
Cc1cc(C(F)(F)F)c2c(C)nn(CCc3nn[nH]n3)c2n1 > 76.9 µM
